Experimental data: publication PMC6089501 (Journal of Medicinal Chemistry, 2018)
Where two headings read alike, the source gives them in different places.

Legend:
[1] = mouse
M. tuberculosis [2] = details: cited from earlier work
M. tuberculosis [3] = details: in vivo; cited from earlier work
[4] = male, Sprague-Dawley, rat, in vivo

Compound: NC(=O)c1sc(CN2CCOCC2)cc1OCCc1ccccc1 [Compound 18, 5-(Morpholinomethyl)-3-(2-phenylethoxy)thiophene-2-carboxamide]
- % Peak Area, metabolite A P + O ([1]; C57 Black, in vivo): 4%

Compound: CCOC(=O)NC(=O)c1ccsc1NC(=O)c1nc2ccccc2s1 [TCA1]
- in vitro bactericidal activity (M. tuberculosis [2]): in vitro bactericidal activity against both replicating and nonreplicating M. tuberculosis
- efficacy in mouse models of TB infection (M. tuberculosis [3]): efficacious in both acute and chronic mouse models of TB infection

Compound: NC(=O)c1sc(N2CCOCC2)cc1OCCc1ccc(OC(F)(F)F)cc1 [Compound 37, 5-Morpholino-3-[2-[4-(trifluoromethoxy)phenyl]ethoxy]thiophene-2-carboxamide]
- fraction of drug absorbed (Fa) from the gastrointestinal tract [4]: 21%
- hepatic extraction ratio (ER) [4]: 44%
- hepatic extraction ratio (ER) ([4]; po, 5 mg/kg): 0.4
- main in vivo metabolites (in words) [1]: products of oxidation of the morpholine
